In the supplement of paper PMC3334620:
Over roughly 33,000 sequences, “E-score (-0.5 to 0.5)” has its median near -0.054; the highest 2% begin near 0.35. Some of the results follow.

Biological target: T1, Stb5 (UniProt P38699)
T1 sequence: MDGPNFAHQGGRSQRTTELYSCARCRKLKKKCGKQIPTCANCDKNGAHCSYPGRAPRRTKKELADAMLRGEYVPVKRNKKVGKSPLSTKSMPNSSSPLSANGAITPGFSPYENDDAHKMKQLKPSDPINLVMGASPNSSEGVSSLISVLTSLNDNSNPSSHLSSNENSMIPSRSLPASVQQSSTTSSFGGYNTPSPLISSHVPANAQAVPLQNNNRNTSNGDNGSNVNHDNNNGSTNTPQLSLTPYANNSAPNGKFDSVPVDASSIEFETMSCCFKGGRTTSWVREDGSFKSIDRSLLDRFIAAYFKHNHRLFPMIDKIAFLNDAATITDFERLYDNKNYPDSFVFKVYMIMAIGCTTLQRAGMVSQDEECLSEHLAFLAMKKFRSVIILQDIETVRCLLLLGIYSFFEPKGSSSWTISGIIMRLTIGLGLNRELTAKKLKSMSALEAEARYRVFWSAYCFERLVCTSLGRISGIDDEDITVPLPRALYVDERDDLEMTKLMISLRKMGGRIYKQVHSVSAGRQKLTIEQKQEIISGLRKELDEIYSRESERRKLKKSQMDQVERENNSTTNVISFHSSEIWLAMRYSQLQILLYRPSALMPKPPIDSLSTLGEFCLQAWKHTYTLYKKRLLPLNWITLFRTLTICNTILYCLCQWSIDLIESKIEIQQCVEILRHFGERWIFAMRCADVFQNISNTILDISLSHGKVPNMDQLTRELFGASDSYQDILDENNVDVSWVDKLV
Assay: PBM E-score (8-mer binding enrichment) (E-score (-0.5 to 0.5)); higher = stronger / more preferred TF binding; most listed sequences are background and not binding sites
Conditions: protein concentration: 200 nM; construct: GST-full length
How it was run: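 Universal all-10-mer Agilent arrays, fresh or stripped once, were converted to double-stranded form by primer extension. GST-tagged yeast transcription factors from PURExpress in vitro transcription/translation, full-length or DNA-binding domain only, were applied at about 100-200 nM and detected with fluorescent anti-GST. After masliner normalisation, the Universal PBM Analysis Suite scored each ungapped eight-base word together with its reverse complement by E-score.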

Row | Sequence | PBM E-score
1 | AGACCAGG | -0.149
2 | ATAGTAAT | -0.0555
3 | AGTTACAA | -0.00894
4 | ATCTGGAA | -0.0998
5 | CAAGGGGG | -0.15
6 | CCGTACAC | 0.103
7 | AAGTGTGA | -0.211
8 | GCCACGCA | -0.0969
9 | ACCGAAAG | 0.171
10 | AGACAGCA | -0.0893
11 | CATACTCG | 0.059
12 | TACTACAA | -0.0615
13 | AAGTGTTA | -0.111
14 | ACATAAAC | 0.13
15 | AGCGGACA | 0.393
16 | AATAAACC | 0.102
17 | TCGCCAGA | -0.126
18 | ATTAACGC | 0.144
19 | CTACTCGA | -0.127
20 | TCACCGAA | 0.217
21 | AATTAGCA | 0.0295
22 | ACGTGATA | -0.232

Row | Sequence | PBM E-score
23 | AAAAAAGA | -0.0951
24 | GTAGGATA | -0.0782
25 | ACGAGAAG | -0.15
26 | CTAGTACC | 0.226
27 | TAAGCATA | -0.101
28 | ATGAAGTC | -0.103
29 | AATCCACG | -0.0195
30 | AAATGGTT | -0.126
31 | AATATAAC | 0.159
32 | CGCCCGAC | 0.33
33 | ATGGGCCA | -0.262
34 | ACACGAGA | -0.136
35 | CAGTCCAA | -0.2
36 | GTTGACCA | -0.139
37 | AAGTTACT | -0.0644
38 | CCTAGAGG | -0.339
39 | ACTATACC | 0.0747
40 | CGTACGGA | 0.159
41 | ACCCGGGC | 0.261
42 | ATAAGCAG | -0.111
43 | CGCGCGCA | 0.179
44 | ATCCTCGC | -0.0309

Row | Sequence | PBM E-score
45 | GCACGTCC | -0.0683
46 | TGTTCTAA | -0.0306
47 | AACGGGAC | 0.176
48 | CACCCCGA | 0.325
49 | AGTCGACG | -0.026
50 | AGAGCACC | 0.0192
51 | ATTAACTC | 0.16
52 | TGGCGCAA | -0.0356
53 | GCCGTGAA | 0.0682
54 | GGTGTCTA | 0.099
55 | AGGGTAGC | -0.176
56 | AGATTAAG | -0.203
57 | GGGTGAAA | 0.209
58 | AGCCGAGC | -0.0406
59 | CATGCGTC | -0.0823
60 | ATATCTCG | -0.0476
61 | GAGCGTCA | -0.0864
62 | CGGTATGA | 0.292
63 | GAGCGAAC | 0.0161
64 | TCAATACA | -0.0573
65 | GTGTGCTA | -0.0481
66 | ATAACACC | 0.461

Row | Sequence | PBM E-score
67 | AAGAGTCA | -0.308
68 | AATGAAAG | -0.168
69 | AGCGAGTG | -0.0724
70 | CGGCGCGC | 0.275
71 | ATCCAAAC | -0.118
72 | AGATTCAC | -0.0641
73 | AACCAGCC | -0.0373
74 | TATATGGA | -0.256
75 | TACGCTAA | -0.116
76 | ACGTGTTC | -0.158
77 | CATCAGCG | 0.0718
78 | CAAAAAAA | 0.0275
79 | AGTTCCAC | -0.118
80 | CCGTAGAC | 0.0866
81 | ACCTTCCT | -0.0803
82 | AACCCCTC | -0.00844
83 | CAATAACG | 0.101
84 | TCTGTGAA | -0.0739
85 | CCCGATAA | 0.216
86 | GTATTGCA | -0.049
